In PubChem BioAssay AID504333 (National Center for Advancing Translational Sciences (NCATS), 2011):
The campaign covered roughly 360,000 compounds. About 16,000 (4.4%) were called active. The inconclusive results got no clear call from the source; some entries with a clear call stand among them for comparison. Calls come from the whole dose curve; as a rule, active = well fitted inhibition curve with a large enough effect; inconclusive = small, poorly fitted or top-dose-only effect; inactive = no such curve, though single readings can be large or run the other way. Potencies beside an inconclusive call are fits to weak or partial responses and may not hold up.

target: Bromodomain adjacent to zinc finger domain protein 2B (Homo sapiens) (UniProt Q9UIF8); experiment: qHTS Assay for Inhibitors of BAZ2B; details: AlphaScreen BAZ2B-H3K14Ac peptide displacement; series mostly up to 114 µM; note: nearly all actives have a fitted effect of over 60% in size
Chain of UniProt Q9UIF8 (Q9UIF8 whole entry, looked up, the tested form may be a part): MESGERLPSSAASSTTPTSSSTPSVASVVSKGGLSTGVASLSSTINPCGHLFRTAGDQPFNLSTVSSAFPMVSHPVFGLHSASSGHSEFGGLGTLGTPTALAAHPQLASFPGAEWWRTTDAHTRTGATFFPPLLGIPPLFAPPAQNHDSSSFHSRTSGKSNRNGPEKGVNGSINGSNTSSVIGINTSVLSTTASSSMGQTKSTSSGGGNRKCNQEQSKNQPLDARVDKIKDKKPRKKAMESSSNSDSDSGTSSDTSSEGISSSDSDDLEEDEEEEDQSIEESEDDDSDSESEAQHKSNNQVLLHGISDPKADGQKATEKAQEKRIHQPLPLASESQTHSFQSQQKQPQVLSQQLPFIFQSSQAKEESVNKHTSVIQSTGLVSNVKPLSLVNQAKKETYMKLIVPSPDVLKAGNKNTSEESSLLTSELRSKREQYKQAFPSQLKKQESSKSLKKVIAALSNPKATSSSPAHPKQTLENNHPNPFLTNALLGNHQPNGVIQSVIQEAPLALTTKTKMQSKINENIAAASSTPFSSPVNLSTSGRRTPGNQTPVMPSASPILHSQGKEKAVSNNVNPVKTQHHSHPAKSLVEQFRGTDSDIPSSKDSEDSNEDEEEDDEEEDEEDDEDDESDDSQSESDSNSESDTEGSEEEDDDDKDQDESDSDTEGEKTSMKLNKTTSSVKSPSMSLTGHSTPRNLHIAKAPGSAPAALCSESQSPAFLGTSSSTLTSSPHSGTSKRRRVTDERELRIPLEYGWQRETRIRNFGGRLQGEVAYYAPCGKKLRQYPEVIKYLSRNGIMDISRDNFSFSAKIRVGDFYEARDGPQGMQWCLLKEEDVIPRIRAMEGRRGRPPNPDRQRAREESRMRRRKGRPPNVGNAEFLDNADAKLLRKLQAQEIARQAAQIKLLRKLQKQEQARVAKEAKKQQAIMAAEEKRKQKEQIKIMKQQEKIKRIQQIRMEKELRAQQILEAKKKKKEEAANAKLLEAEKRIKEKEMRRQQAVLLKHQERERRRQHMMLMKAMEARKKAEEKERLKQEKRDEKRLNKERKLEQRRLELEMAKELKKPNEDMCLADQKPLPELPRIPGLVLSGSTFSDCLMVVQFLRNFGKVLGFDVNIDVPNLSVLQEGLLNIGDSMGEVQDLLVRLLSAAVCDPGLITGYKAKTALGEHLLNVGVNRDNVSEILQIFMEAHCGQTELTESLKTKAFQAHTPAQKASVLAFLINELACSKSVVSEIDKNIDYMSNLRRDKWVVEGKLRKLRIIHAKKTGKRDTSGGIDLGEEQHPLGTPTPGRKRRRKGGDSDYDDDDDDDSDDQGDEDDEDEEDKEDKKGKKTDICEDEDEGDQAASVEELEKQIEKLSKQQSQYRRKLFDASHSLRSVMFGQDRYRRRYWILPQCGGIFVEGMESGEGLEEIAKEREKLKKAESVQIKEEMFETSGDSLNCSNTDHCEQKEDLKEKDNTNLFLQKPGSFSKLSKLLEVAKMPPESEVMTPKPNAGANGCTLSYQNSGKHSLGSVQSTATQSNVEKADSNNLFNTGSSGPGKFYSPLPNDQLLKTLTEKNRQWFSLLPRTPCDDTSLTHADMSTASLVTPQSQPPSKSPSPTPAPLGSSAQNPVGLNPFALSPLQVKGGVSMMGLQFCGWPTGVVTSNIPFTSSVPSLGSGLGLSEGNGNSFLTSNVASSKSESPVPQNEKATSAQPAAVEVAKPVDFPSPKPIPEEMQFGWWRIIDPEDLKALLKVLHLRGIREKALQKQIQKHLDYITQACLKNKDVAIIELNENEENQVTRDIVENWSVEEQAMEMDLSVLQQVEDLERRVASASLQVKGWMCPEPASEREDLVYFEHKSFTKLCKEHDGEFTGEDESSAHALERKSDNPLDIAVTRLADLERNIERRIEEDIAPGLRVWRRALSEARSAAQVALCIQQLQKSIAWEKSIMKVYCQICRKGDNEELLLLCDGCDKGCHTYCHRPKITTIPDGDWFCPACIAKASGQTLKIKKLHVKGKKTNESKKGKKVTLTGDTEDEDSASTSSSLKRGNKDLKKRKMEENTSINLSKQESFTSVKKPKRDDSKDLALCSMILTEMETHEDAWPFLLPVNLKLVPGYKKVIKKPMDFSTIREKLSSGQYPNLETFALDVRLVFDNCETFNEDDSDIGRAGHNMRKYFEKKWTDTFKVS
In short: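 BAZ2B (50 nM) with biotin-H3(5-23)K14Ac peptide (50 nM) in PBS pH 7.4, 0.01% Tween-20, preformed 30 min, then compound 30 min at room temperature; top concentration 110uM. AlphaScreen streptavidin donor/nickel chelate acceptor beads (10 ug/mL final), 20 min dark, signal read.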
Potency is the fitted concentration of half-maximal effect; tags give direction and shape of the fitted curve.

| Compound | Potency |
| --- | --- |
| Cc1ccc(S(=O)(=O)n2nc(OC(=O)C3CCCCC3)cc2N)cc1 | inconclusive: 89.1 µM [inhibitor, single point] |
| CCc1ccc(N(CC)C(=O)Cn2cnc3sc(C)c(S(=O)(=O)N4CCN(c5ncccn5)CC4)c3c2=O)cc1 | inactive |
| CCCC1=Nc2cc(C(=O)NCCOC)ccc2Sc2ccccc21 | inconclusive: 79.4 µM [inhibitor, single point] |
| O=C(Nc1ccc(C(=O)NCc2ccccc2)cc1)C1=CSCCO1 | inactive |
| CCOC(=O)/C(=N\Nc1cccc(Cl)c1)Sc1nnc(-c2ccc(OC)cc2)n1C | inactive |
| CCN(CC)CCOCCOc1cc(C)c(Cl)c(C)c1 | inactive |
| CCN(CC)S(=O)(=O)c1ccc(OC)c(NC(=O)c2ccc(N3CCCC3=O)cc2)c1 | inactive |
| COc1ccccc1CNC(=O)Cn1c(=O)nc(-c2ccccc2)c2ccccc21 | inactive |
| COc1ccc(C2NC(=O)NC(C)=C2[N+](=O)[O-])cc1 (stereo unspecified) | inconclusive: 89.1 µM [inhibitor, single point] |
| CCN(CC)c1ccc(/C=C/C(=O)c2cccnc2)cc1 | inconclusive: 44.7 µM [inhibitor, partial curve] |
| COC(=O)c1ccc2c(=O)n(CCCCCC(=O)N3CCN(c4ccc(Cl)cc4)CC3)c(=O)[nH]c2c1 | inactive |
| CCOCCCNCC(=O)N1CCN(S(=O)(=O)c2ccc(C)cc2)CC1 | active: 79.4 µM |
| CCN(CC)CCSc1nnc2c3cc(F)ccc3n(CC)c2n1 | inconclusive: 79.4 µM [inhibitor, single point] |
| CN(C)c1ccc(/C=N/c2cc(-c3ccccc3)nn2-c2ccccc2)cc1 | active: 10 µM |
| O=C(O)CNS(=O)(=O)c1ccc2c(c1)Cc1cc(S(=O)(=O)NCC(=O)O)ccc1-2 | inconclusive: 89.1 µM [inhibitor, single point] |
| CCOc1ccc(NC(N)=O)cc1OCC | inconclusive: 35.5 µM [inhibitor, single point] |
| O=C(/C(=C/O)N=Nc1ccccc1)c1ccc(Cl)cc1 | inconclusive: 11.2 µM [inhibitor, full curve] |
| CCOC(=O)c1ccc(NC(=S)N2CCN(CCN=CC3=C(O)CC(C)(C)CC3=O)CC2)cc1 | inconclusive: 79.4 µM [inhibitor, single point] |
| Cc1cccc(-n2c(C)cc(/C=N\NC(=O)c3ccco3)c2C)c1 | inconclusive: 50.1 µM [inhibitor, partial curve] |
| O=C(NCCc1c[nH]c2ccccc12)[C@@H]1C[C@H]1[C@@H](NP(=O)(c1ccccc1)c1ccccc1)c1ccccc1 | inconclusive: 44.7 µM [inhibitor, partial curve] |
| Cc1ccc(NC(=O)c2ccc([N+](=O)[O-])cc2Cl)nc1 | inconclusive: 89.1 µM [inhibitor, single point] |
| CCCCn1c(-c2cccc(C)c2)nc2cc3[nH]c(=O)c(C(C)C)nc3cc21 | inconclusive: 89.1 µM [inhibitor, single point] |
| COc1ccc(CCNC(=O)CCc2nc3sc4c(c3c(=O)[nH]2)CCCC4)cc1 | inconclusive: 89.1 µM [inhibitor, single point] |
| CC(=O)/C(C[N+]1(C)CCCCC1)=N\O | inconclusive: 39.8 µM [inhibitor, partial curve] |

| Compound | Potency |
| --- | --- |
| O=C(NC1CS(=O)(=O)CC1NCc1ccccc1)c1ccccc1 (stereo unspecified) | inactive |
| COc1ccc(NC(C)=[N+](C)CCNS(=O)(=O)c2ccc(Cl)cc2)cc1 | active: 56.2 µM |
| Cc1cccc(N2CCN(C(=O)CN3C(=O)COc4ccc(S(=O)(=O)N5CCCC5)cc43)CC2C)c1 (stereo unspecified) | inconclusive: 79.4 µM [inhibitor, partial curve] |
| Cc1ccc(N2C(=O)c3ccccc3C2O)nc1 (stereo unspecified) | inactive |
| Cc1cc(C)cc(-n2nnn(C3C/C(=N/NC(N)=S)C4OCC3O4)c2=S)c1 (stereo unspecified) | inactive |
| Cc1ccc(C)c(N2CCN(C(=O)CS(=O)(=O)c3cccc4nsnc34)CC2)c1 | inconclusive: 50.1 µM [inhibitor, partial curve] |
| O=C1CSC(=S)N1/N=C/C=C/c1ccccc1 | inconclusive: 7.08 µM [inhibitor, full curve] |
| O=c1cc(NS(=O)(=O)c2ccccc2)nc(SCc2ccc(Cl)cc2)[nH]1 | active: 79.4 µM |
| COc1ccc(CN2C(=O)c3cccnc3C2=O)cc1S(=O)(=O)NCc1ccc(C)cc1 | active: 79.4 µM |
| CN(C)c1ccc(/C=C/C=C2/SC(=S)N(c3ccccc3)C2=O)cc1 | inconclusive: 31.6 µM [inhibitor, full curve, poor fit] |
| COC(=O)c1ccccc1NC(=O)C1CCCN(c2nnc(C)c3c(C)n(-c4ccccc4)nc23)C1 (stereo unspecified) | active: 79.4 µM |
| O=C(CN1C(=O)CC(c2ccco2)Sc2ccccc21)Nc1ccc2c(c1)OCCO2 (stereo unspecified) | inconclusive: 44.7 µM [inhibitor, partial curve] |
| COc1cc(C(C(=O)NC2CCCCC2)N(C(=O)Cc2c[nH]c3ccccc23)c2ccccc2C)cc(OC)c1OC (stereo unspecified) | inconclusive: 44.7 µM [inhibitor, partial curve] |
| Cc1cccc(-n2c(-c3csc(C(C)C)c3)n[nH]c2=S)c1 | inactive |
| c1cncc(-c2nc3ccccn3c2Nc2ccc3c(c2)OCCO3)c1 | inconclusive: 50.1 µM [inhibitor, partial curve] |
| Cc1ccc(C(c2nnnn2Cc2cccs2)N2CCN(C(=O)c3ccco3)CC2)cc1 (stereo unspecified) | inconclusive: 89.1 µM [inhibitor, single point] |
| O=C(Cn1c(=O)oc2cc(S(=O)(=O)N3CCCCC3)ccc21)NCc1ccc(F)cc1 | inconclusive: 70.8 µM [inhibitor, single point] |
| CCOc1ccc2c(c1)C(N(CCN1CCOCC1)C(=O)Nc1ccccc1)CC(C)(C)O2 (stereo unspecified) | inconclusive: 44.7 µM [inhibitor, partial curve] |
| N/C(=N\OC(=O)c1cc(Br)ccc1Cl)c1cccnc1 | inconclusive: 79.4 µM [inhibitor, single point] |
| COc1ccc(NC(=O)CCc2nnc3ccc(NCc4ccc5c(c4)OCO5)nn23)cc1 | inconclusive: 79.4 µM [inhibitor, single point] |
| Cc1cc(C(=O)NCCCn2ccnc2)sc1-c1ccccc1 | active: 50.1 µM |
| O=[N+]([O-])c1ccccc1/C=C/CN1CCSCC1 | active: 50.1 µM |
| O=C(O)Cc1cn(-c2ccccc2)nc1-c1ccc(Cl)cc1 | inactive |
| CCC(CC)=NNc1cccc([N+](=O)[O-])c1 | inconclusive: 79.4 µM [inhibitor, single point] |

| Compound | Potency |
| --- | --- |
| O=C(CSc1n[nH]c(-c2ccccn2)n1)Nc1ccc(F)cc1 | active: 3.98 µM |
| COc1ccc(N(C)C(=O)CN(C)S(=O)(=O)c2ccc3c(c2)c(=O)n(C)c(=O)n3C)c(OC)c1 | inconclusive: 79.4 µM [inhibitor, single point] |
| CC[n+]1ccc(/C=C/c2ccc(N(C)C)cc2)c2ccccc21 | active: 10 µM |
| CCc1ccc2c(c1)C(C)=CC(C)(C)N2 | inconclusive: 50.1 µM [inhibitor, partial curve] |
| Cc1ccc2nc(NCc3ccccc3)c3nnnn3c2c1 | inconclusive: 89.1 µM [inhibitor, single point] |
| CC(=O)c1cccc(OCC(O)CNCCc2ccc(Cl)cc2)c1 (stereo unspecified) | active: 20 µM |
| O=[N+]([O-])c1ccccc1S(=O)(=O)N1CCN(Cc2ccccc2)CC1 | inconclusive: 70.8 µM [inhibitor, single point] |
| CCOc1ccc(CCNC(=O)CCc2c(C)nc3c(c(C)nn3-c3ccc(C)c(C)c3)c2C)cc1 | inactive |
| COc1ccc(-n2c(Cc3cccn3C)nnc2SCC(=O)Nc2ccccc2F)cc1 | inconclusive: 50.1 µM [inhibitor, partial curve] |
| Cc1cccc2c1cnn2C(=O)CCC(=O)NCc1ccc(F)cc1 | inactive |
| Cc1cc(C)nc(SCC(=O)N/N=C/c2cc(C)n(-c3ccccc3C)c2C)n1 | active: 44.7 µM |
| C[n+]1cn(/N=C/c2ccccc2)c2ccccc21 | inactive |
| O=c1cc(CO)oc(CN2CCN(Cc3ccccc3)CC2)c1O | inconclusive: 89.1 µM [inhibitor, single point] |
| Fc1cccc(/C=C2\CCCC3=C2NC(=S)NC3c2cccc(F)c2)c1 (stereo unspecified) | inconclusive: 35.5 µM [inhibitor, partial curve] |
| CCc1cc(C(=O)c2ccccc2)c(N)s1 | inconclusive: 89.1 µM [inhibitor, single point] |
| CCCn1c(C)cc(C(=O)COc2ccc(-c3nnco3)cc2)c1C | inconclusive: 56.2 µM [inhibitor, partial curve] |
| COc1cc(C(=O)N/N=C/c2ccccn2)cc(OC)c1OC | active: 25.1 µM |
| COc1cc(-c2nc(-c3ccc4c(c3)-c3ccccc3S4(=O)=O)c(-c3ccccc3)[nH]2)cc(OC)c1O | inconclusive: 44.7 µM [inhibitor, partial curve] |
| COc1cc(/C=C2/C(=O)NN(c3cccc(F)c3)C2=O)ccc1OC(=O)c1ccco1 | inconclusive: 89.1 µM [inhibitor, single point] |
| Cc1ccc(-n2ncc3c(NCc4ccco4)ncnc32)cc1C | inactive |
| Cc1ccccc1OCC(=O)N/N=C/c1cccn1C | active: 44.7 µM |
| COc1ccc(OC)c(N2C(N)=C(C#N)C(c3ccc(OC)c(O)c3)C3=C2CC(C)(C)CC3=O)c1 (stereo unspecified) | inconclusive: 89.1 µM [inhibitor, single point] |
| O=C(CCCCCN1C(=O)c2ccccc2C1=O)Nc1nccs1 | inactive |
